From PMC8376998
No constants are given. Whether binding was seen depends on the method and setting. For part of these data: In cells and extracts the contact can be indirect. Some entries that bind do so weakly or less than the wild type.

The chains behind the UniProt entries cited, without tags or fusion partners. Where a name states a change or a piece, a line headed by the entry shows the natural chain unless it says otherwise. A line that says so, or that is headed by a name, gives the form on record, which may keep a tag or linker. Residues count along the entry.
UniProt Q16637: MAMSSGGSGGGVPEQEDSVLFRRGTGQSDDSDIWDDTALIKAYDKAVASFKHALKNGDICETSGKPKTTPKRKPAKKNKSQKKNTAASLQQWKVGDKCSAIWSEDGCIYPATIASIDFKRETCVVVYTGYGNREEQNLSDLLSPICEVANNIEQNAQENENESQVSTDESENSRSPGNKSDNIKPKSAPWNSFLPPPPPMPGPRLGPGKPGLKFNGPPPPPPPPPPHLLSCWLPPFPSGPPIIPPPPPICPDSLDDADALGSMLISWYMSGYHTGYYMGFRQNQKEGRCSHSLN
GST-fused wild-type SMN Tudor domain: residues 91-151 of Q16637
GST-fused SMN Tudor domain SIM mutant (2VA) (Q16637, form named): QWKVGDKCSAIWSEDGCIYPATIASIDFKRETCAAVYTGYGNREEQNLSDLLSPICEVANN
UniProt Q8TEQ6: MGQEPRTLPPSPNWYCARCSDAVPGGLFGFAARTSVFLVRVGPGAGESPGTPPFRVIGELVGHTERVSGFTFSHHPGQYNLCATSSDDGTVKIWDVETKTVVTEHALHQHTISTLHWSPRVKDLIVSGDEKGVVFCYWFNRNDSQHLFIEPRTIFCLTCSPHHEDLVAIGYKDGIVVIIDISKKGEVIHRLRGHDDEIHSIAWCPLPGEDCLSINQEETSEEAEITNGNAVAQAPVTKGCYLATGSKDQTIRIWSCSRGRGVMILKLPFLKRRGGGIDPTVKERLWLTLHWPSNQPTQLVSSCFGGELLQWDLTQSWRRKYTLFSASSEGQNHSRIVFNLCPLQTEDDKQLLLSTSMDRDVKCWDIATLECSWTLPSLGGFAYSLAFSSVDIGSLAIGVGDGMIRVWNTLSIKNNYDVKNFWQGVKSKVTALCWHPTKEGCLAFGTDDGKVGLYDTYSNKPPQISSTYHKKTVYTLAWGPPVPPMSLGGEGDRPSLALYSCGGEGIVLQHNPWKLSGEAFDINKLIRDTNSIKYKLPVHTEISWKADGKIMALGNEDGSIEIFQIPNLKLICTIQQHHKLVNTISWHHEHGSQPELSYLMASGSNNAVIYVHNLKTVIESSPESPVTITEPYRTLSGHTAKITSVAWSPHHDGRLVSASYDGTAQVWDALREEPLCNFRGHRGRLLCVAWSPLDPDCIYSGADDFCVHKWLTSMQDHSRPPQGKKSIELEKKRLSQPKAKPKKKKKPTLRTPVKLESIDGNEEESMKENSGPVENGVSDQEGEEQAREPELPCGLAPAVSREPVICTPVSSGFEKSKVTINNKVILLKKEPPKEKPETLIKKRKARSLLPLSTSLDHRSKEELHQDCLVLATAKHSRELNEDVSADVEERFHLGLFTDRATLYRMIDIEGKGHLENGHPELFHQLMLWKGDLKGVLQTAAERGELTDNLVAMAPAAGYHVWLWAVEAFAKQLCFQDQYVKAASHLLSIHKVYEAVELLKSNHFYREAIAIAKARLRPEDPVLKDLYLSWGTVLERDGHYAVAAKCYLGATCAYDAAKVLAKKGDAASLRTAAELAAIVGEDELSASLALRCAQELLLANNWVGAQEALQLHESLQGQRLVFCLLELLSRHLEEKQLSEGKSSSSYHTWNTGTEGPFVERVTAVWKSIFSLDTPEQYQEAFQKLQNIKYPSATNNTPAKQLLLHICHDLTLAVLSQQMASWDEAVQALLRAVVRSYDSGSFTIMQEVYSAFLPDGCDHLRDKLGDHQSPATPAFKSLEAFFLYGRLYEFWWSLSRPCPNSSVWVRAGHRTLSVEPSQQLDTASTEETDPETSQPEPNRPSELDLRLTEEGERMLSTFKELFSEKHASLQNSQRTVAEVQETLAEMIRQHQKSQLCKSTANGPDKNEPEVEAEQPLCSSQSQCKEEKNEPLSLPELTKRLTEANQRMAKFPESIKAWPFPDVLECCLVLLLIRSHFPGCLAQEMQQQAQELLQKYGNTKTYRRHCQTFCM
UniProt P63165, residues 1-97: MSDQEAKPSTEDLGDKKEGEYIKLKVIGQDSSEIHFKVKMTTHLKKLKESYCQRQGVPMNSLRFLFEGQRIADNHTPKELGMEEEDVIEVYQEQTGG
UniProt P61956: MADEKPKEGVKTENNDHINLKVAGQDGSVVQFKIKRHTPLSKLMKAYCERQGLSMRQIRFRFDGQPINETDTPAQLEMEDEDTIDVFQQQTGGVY
UniProt Q9UHI6: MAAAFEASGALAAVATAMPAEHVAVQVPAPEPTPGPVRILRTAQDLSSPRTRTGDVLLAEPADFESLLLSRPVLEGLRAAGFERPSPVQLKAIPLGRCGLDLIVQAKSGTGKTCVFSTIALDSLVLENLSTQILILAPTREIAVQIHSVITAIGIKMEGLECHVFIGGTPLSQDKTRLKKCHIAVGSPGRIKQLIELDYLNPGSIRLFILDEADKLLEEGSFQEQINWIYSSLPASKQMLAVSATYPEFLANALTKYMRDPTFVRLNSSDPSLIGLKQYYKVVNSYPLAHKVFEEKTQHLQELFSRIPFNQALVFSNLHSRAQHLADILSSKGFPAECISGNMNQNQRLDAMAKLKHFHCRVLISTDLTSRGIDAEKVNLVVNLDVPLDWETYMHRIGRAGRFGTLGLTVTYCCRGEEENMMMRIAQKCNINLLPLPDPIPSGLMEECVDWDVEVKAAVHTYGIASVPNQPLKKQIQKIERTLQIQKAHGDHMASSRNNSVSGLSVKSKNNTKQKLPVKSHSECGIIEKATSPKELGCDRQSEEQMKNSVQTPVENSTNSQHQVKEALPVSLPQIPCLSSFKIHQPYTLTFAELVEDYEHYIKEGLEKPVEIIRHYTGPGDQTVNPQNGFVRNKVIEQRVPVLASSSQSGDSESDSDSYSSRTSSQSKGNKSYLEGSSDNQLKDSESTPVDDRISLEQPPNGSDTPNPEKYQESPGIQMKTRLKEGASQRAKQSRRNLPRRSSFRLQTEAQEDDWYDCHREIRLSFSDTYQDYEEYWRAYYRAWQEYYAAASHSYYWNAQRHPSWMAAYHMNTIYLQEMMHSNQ

Tests used:
[1] = biological target: GST-fused SMN Tudor domain SIM mutant (2VA) (human) (UniProt Q16637); assay: pull-down; purified His-SUMO1 or His-SUMO-2 incubated with GST-fused SMN Tudor domain (WT or 2VA), pulled down with Glutathione-sepharose beads; immunoblot; 3 h at 4 °C in 50 mM Tris-HCl pH 7.5, 100 mM NaCl, 10 μm ZnCl2, 10% glycerol, 0.1 mM DTT; both purified
[2] = biological target: GST-fused wild-type SMN Tudor domain (human) (UniProt Q16637); assay: as above
[3] = biological target: FLAG-tagged GEMIN5 wildtype (UniProt Q8TEQ6); assay: co-IP; lysates of HEK-293T cells transfected with FLAG-tagged SMN or GEMIN5, precipitated with anti-FLAG (M2) agarose beads; Western blot of the precipitates; naive HEK-293T as control
[4] = biological target: FLAG-tagged SMN wildtype (human) (UniProt Q16637); assay: as above
[5] = biological target: FLAG-tagged SMN-E134K (SMA mutant) (human) (UniProt Q16637); assay: as above

| Substance | binding [1] | binding [2] | binding [3] | binding [4] | binding [5] |
| --- | --- | --- | --- | --- | --- |
| His-tagged SUMO-1 recombinant protein (from UniProt P63165 1-97) | no binding | binds | – | – | – |
| SMN found with FLAG-GEMIN5 (HEK-293T) (from UniProt Q16637 1-294) | – | – | binds | – | – |
| endogenous GEMIN5 (HEK-293T) (from UniProt Q8TEQ6 1-1508) | – | – | – | binds | binds |

The next lines start with the values.

| binding [1] | binding [2] | binding [3] | binding [4] | binding [5] | Substance |
| --- | --- | --- | --- | --- | --- |
| no binding | binds | – | – | – | His-tagged SUMO-2 recombinant protein (from UniProt P61956 1-95) |
| – | – | – | binds | binds | endogenous GEMIN3 (HEK-293T) (from UniProt Q9UHI6 1-824) |
